Test results taken from PubChem BioAssay AID504339 (National Center for Advancing Translational Sciences (NCATS), 2011).
About 17,000 (4.4%) of roughly 390,000 compounds were called active. The inconclusive results got no clear call from the source; some entries with a clear call stand among them for comparison. The call rests on the fitted dose curve; in most records, active means well fitted inhibition curve with a large enough effect; inconclusive means small, poorly fitted or top-dose-only effect; inactive means no such curve, though single readings can be large or run the other way. A potency beside an inconclusive call is a rough fit, not a confirmed value.
Further: nearly all actives have a fitted effect of over 50% in size.
On the % scale 0 is the no-effect control and ±100 the full control effect; potency means the concentration at half of the fitted maximal effect; tags describe the fitted curve by direction and shape.

These molecules were tested against Lysine-specific demethylase 4A (Homo sapiens) (UniProt O75164) (assay: qHTS Assay for Inhibitors of JMJD2A-Tudor Domain). Settings: AlphaScreen JMJD2A-Tudor / H3K4me3 peptide binding; activity change, negative = inhibition: at 114 µM (top of the series).
UniProt O75164, sequence (O75164 whole entry, looked up, the tested form may be a part): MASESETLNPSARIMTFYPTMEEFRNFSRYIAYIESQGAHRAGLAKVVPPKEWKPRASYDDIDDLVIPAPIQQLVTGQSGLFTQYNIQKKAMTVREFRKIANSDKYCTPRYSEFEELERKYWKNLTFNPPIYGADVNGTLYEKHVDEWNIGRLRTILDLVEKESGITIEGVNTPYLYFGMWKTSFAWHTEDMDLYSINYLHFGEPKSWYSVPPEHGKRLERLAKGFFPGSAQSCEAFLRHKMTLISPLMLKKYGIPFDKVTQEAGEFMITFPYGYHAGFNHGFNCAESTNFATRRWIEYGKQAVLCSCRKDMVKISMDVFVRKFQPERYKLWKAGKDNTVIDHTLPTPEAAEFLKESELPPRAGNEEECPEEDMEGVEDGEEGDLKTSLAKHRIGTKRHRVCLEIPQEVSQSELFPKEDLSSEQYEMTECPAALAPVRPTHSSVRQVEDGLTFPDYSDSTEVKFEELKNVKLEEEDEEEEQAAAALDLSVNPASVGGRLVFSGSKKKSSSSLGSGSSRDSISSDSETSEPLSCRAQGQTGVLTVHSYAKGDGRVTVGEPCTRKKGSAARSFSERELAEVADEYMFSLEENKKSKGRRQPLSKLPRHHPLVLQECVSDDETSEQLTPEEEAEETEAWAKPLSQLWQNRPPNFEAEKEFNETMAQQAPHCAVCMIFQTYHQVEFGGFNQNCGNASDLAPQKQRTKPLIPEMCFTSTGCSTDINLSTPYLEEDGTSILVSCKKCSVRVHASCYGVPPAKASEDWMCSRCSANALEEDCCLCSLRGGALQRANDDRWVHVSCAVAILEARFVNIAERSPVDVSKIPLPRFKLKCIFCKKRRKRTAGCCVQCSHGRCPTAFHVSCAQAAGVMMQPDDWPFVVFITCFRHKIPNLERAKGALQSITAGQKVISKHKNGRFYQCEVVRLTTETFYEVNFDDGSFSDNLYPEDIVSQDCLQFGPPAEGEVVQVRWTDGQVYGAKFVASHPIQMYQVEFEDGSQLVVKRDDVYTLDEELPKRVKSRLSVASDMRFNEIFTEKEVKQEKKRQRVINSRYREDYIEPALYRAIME
For COc1ccc(NC(=O)CN2CCOCC2)cc1, the Potency was inconclusive: 0.708 µM [inhibitor, full curve, poor fit].
Cc1cc(-c2n[nH]c(=S)n2/N=C/c2cccc(O)c2)n[nH]1 was tested, and the Potency was active: 3.16 µM.
In the case of Cc1ccc(N(CC2CO2)S(=O)(=O)c2ccccc2[N+](=O)[O-])cc1 (stereo not given), the “activity change, negative = inhibition” value is reported as inactive: -11%.
With COc1ccc(-c2ccc(N(C)C)cc2)cc1C1C2C=CCCC2(C)C(=O)N1Cc1ccccc1 (stereo not given) the Potency was active: 8.91 µM.
For CCn1c(=O)c(CCC(=O)N2CCOCC2)c(C)c2c(C)nn(-c3ccccc3)c21, the “activity change, negative = inhibition” value was inactive: -20.8%.
With COc1ccc(-c2cc(=O)oc3c(O)c(O)ccc23)cc1 the Potency was inconclusive: 44.7 µM [inhibitor, partial curve].
In the case of O=C(Nc1cccnc1Cl)c1ccc(=O)oc1, the Potency is reported as inconclusive: 79.4 µM [inhibitor, partial curve].
In the case of O=C(COC(=O)COc1ccc(Cl)cc1)Nc1ncc(Br)s1, the “activity change, negative = inhibition” value is reported as inactive: -11.7%.
In the case of Cc1cc(C)cc(OC2CCCCC2NS(=O)(=O)c2ccccc2)c1 (stereo not given), the “activity change, negative = inhibition” value is reported as inactive: 13.8%.
With CSCc1c(C(=O)Nc2ccc3c(c2)OCO3)oc2ccccc12 the Potency was inconclusive: 79.4 µM [inhibitor, partial curve].
In the case of O=c1ccc2cc(S(=O)(=O)NCc3ccc(Cl)cc3)ccc2[nH]1, the Potency is reported as inconclusive: 39.8 µM [inhibitor, partial curve].
In the case of COc1cccc(C2Nc3c(F)cc(Br)cc3C3C=CCC32)c1OC (stereo not given), the “activity change, negative = inhibition” value is reported as inactive: 8.22%.
With c1ccc(-n2nnnc2-c2cnc(-c3ccncc3)nc2-c2cccs2)cc1 the Potency was inconclusive: 50.1 µM [inhibitor, partial curve, poor fit].
For Cn1c(/C(C#N)=C(\O)CN2CCN(Cc3ccccc3)CC2)nc2ccccc21, the Potency was inconclusive: 89.1 µM [inhibitor, single point].
O=c1c2cc(Cl)ccc2nc(-c2ccc([N+](=O)[O-])cc2)n1O was tested, and the Potency was inconclusive: 22.4 µM [inhibitor, partial curve].
Cn1c(CC(=O)Nc2ccccc2)nnc1SCC(=O)NC1=NCCS1 was tested, and the Potency was inconclusive: 28.2 µM [inhibitor, partial curve].
In the case of CCOC(=O)N1CCN(CC(O)COc2c(OC)cccc2OC)CC1 (stereo not given), the Potency is reported as inconclusive: 79.4 µM [inhibitor, single point].
COC(=O)/C=c1\[nH]c2nnc(C)n2c1=O was tested, and the Potency was inconclusive: 28.2 µM [inhibitor, single point].
With Cc1ccccc1OCc1ccc(-c2nc(C#N)c(N3CCCCC3)o2)o1 the Potency was inconclusive: 35.5 µM [inhibitor, partial curve].
For COc1ccc(/C=C(\NC(=O)c2ccc(OC)cc2)C(=O)NC(CCSC)C(=O)O)cc1 (stereo not given), the Potency was inconclusive: 89.1 µM [inhibitor, single point].
